Measured values: a collection of fitness landscapes (doi:10.1126/science.1257360)
Some of the results follow.

B1: PhoQ; a variant is named by its letters at X, in order, P23837 (parent)
chain: MKKLLRLFFPLSLRVRFLLATAAVVLVLSLAYGMVALIGYSVSFDKTTFRLLRGESNLFYTLAKWENNKLHVELPENIDKQSPTMTLIYDENGQLLWAQRDVPWLMKMIQPDWLKSNGFHEIEADVNDTSLLLSGDHSIQQQLQEVREDDDDAEMTHSVAVNVYPATSRMPKLTIVVVDTIPVELKSSYMVWSWFIYVLSANLLLVIPLLWVAAWWSLRPIEALAKEVRELEEHNRELLNPATTRELTSLVRNLNRLLKSERERYDKYRTTLTDLTHSLKTPLXXLQXXLRSLRSEKMSVSDAEPVMLEQISRISQQIGYYLHRASMRGGTLLSRELHPVAPLLDNLTSALNKVYQRKGVNISLDISPEISFVGEQNDFVEVMGNVLDNACKYCLEFVEISARQTDEHLYIVVEDDGPGIPLSKREVIFDRGQRVDTLRPGQGVGLAVAREITEQYEGKIVAGESMLGGARMEVIFGRQHSAPKDE

Variants of: B1
Assay: enrichment ratio after two sorts for PhoP signalling (ratio (wild type AVST 3.29)); higher = more functional
Settings: with PhoP (E. coli)

Q: How did the enrichment ratio turn out when KSPI was run?
A: ≤ 0.25

Q: Which enrichment ratio does the source give for NTIH here?
A: ≤ 0.25

Q: Which enrichment ratio does the source give for WHWN here?
A: ≤ 0.25

Q: NMFF was tested. Which enrichment ratio did it give?
A: ≤ 0.25

Q: Which enrichment ratio does the source give for ADFS here?
A: ≤ 0.25

Q: For PHPE, which enrichment ratio is on record?
A: ≤ 0.25

Q: How did the enrichment ratio turn out when FWTK was run?
A: ≤ 0.25

Q: For PDWL, which enrichment ratio is on record?
A: ≤ 0.25

Q: KCKF was tested. Which enrichment ratio did it give?
A: ≤ 0.25

Q: How did the enrichment ratio turn out when PKAY was run?
A: ≤ 0.25

Q: How did the enrichment ratio turn out when ASWY was run?
A: ≤ 0.25

Q: ERLL was tested. Which enrichment ratio did it give?
A: ≤ 0.25

Q: With KTAF as the variant, how does the enrichment ratio read?
A: ≤ 0.25

Q: With QCDG as the variant, how does the enrichment ratio read?
A: ≤ 0.25

Q: With INQT as the variant, how does the enrichment ratio read?
A: ≤ 0.25

Q: Which enrichment ratio does the source give for IFNE here?
A: ≤ 0.25

Q: Which enrichment ratio does the source give for PEYA here?
A: ≤ 0.25

Q: Which enrichment ratio does the source give for LPSE here?
A: ≤ 0.25

Q: How did the enrichment ratio turn out when MEPA was run?
A: ≤ 0.25

Q: How did the enrichment ratio turn out when ALLW was run?
A: ≤ 0.25

Q: GRFK was tested. Which enrichment ratio did it give?
A: ≤ 0.25

Q: For IFSM, which enrichment ratio is on record?
A: ≤ 0.25

Q: With FEWT as the variant, how does the enrichment ratio read?
A: ≤ 0.25

Q: How did the enrichment ratio turn out when YERL was run?
A: ≤ 0.25

Q: For RYLE, which enrichment ratio is on record?
A: ≤ 0.25

Q: How did the enrichment ratio turn out when KPSY was run?
A: ≤ 0.25

Q: Which enrichment ratio does the source give for QTAW here?
A: ≤ 0.25

Q: PYQI was tested. Which enrichment ratio did it give?
A: ≤ 0.25

Q: With GRKF as the variant, how does the enrichment ratio read?
A: ≤ 0.25

Q: SMNN was tested. Which enrichment ratio did it give?
A: ≤ 0.25

Q: For FVTA, which enrichment ratio is on record?
A: ≤ 0.25

Q: With DAPM as the variant, how does the enrichment ratio read?
A: ≤ 0.25

Q: Which enrichment ratio does the source give for HYYV here?
A: ≤ 0.25

Q: QSQK was tested. Which enrichment ratio did it give?
A: ≤ 0.25

Q: For GHIY, which enrichment ratio is on record?
A: ≤ 0.25

Q: FSTV was tested. Which enrichment ratio did it give?
A: 2.68

Q: With QPLY as the variant, how does the enrichment ratio read?
A: ≤ 0.25

Q: With EFVV as the variant, how does the enrichment ratio read?
A: ≤ 0.25

Q: With IWVE as the variant, how does the enrichment ratio read?
A: ≤ 0.25

Q: For MPFQ, which enrichment ratio is on record?
A: ≤ 0.25

Q: For KRCK, which enrichment ratio is on record?
A: ≤ 0.25

Q: How did the enrichment ratio turn out when TWMI was run?
A: 0.253

Q: With VDDP as the variant, how does the enrichment ratio read?
A: ≤ 0.25

Q: HGFA was tested. Which enrichment ratio did it give?
A: ≤ 0.25

Q: Which enrichment ratio does the source give for MGIK here?
A: ≤ 0.25

Q: Which enrichment ratio does the source give for RNAL here?
A: ≤ 0.25

Q: Which enrichment ratio does the source give for NDLF here?
A: ≤ 0.25

Q: Which enrichment ratio does the source give for MDAG here?
A: ≤ 0.25

Q: DNVQ was tested. Which enrichment ratio did it give?
A: ≤ 0.25

Q: With WYIF as the variant, how does the enrichment ratio read?
A: ≤ 0.25

Q: With WDIN as the variant, how does the enrichment ratio read?
A: ≤ 0.25

Q: For VSYI, which enrichment ratio is on record?
A: 0.294

Q: How did the enrichment ratio turn out when VCMR was run?
A: ≤ 0.25

Q: For INKV, which enrichment ratio is on record?
A: 1.45

Q: With HIFK as the variant, how does the enrichment ratio read?
A: ≤ 0.25

Q: With TVIM as the variant, how does the enrichment ratio read?
A: ≤ 0.25

Q: For RIWM, which enrichment ratio is on record?
A: ≤ 0.25

Q: VPAM was tested. Which enrichment ratio did it give?
A: ≤ 0.25

Q: HTSH was tested. Which enrichment ratio did it give?
A: ≤ 0.25

Q: RPHW was tested. Which enrichment ratio did it give?
A: ≤ 0.25

Q: SLAH was tested. Which enrichment ratio did it give?
A: 6.33

Q: MNSK was tested. Which enrichment ratio did it give?
A: ≤ 0.25

Q: For EFND, which enrichment ratio is on record?
A: ≤ 0.25

Q: For RARY, which enrichment ratio is on record?
A: ≤ 0.25

Q: For NVCH, which enrichment ratio is on record?
A: ≤ 0.25

Q: For FWPK, which enrichment ratio is on record?
A: ≤ 0.25

Q: For TLMR, which enrichment ratio is on record?
A: ≤ 0.25

Q: For WIMM, which enrichment ratio is on record?
A: ≤ 0.25

Q: With QFCC as the variant, how does the enrichment ratio read?
A: ≤ 0.25

Q: For DRIA, which enrichment ratio is on record?
A: ≤ 0.25

Q: Which enrichment ratio does the source give for VVDW here?
A: ≤ 0.25

Q: SEMD was tested. Which enrichment ratio did it give?
A: 1.79

Q: With EMRQ as the variant, how does the enrichment ratio read?
A: ≤ 0.25

Q: Which enrichment ratio does the source give for NHQC here?
A: ≤ 0.25

Q: QPWV was tested. Which enrichment ratio did it give?
A: ≤ 0.25

Q: Which enrichment ratio does the source give for GWIG here?
A: ≤ 0.25

Q: Which enrichment ratio does the source give for PGWS here?
A: ≤ 0.25

Q: How did the enrichment ratio turn out when SFDA was run?
A: ≤ 0.25

Q: Which enrichment ratio does the source give for EFHY here?
A: ≤ 0.25

Q: With RMWC as the variant, how does the enrichment ratio read?
A: ≤ 0.25

Q: With IVWA as the variant, how does the enrichment ratio read?
A: ≤ 0.25

Q: How did the enrichment ratio turn out when VEHT was run?
A: ≤ 0.25

Q: With FNEW as the variant, how does the enrichment ratio read?
A: ≤ 0.25

Q: For HMKD, which enrichment ratio is on record?
A: ≤ 0.25

Q: For VFPN, which enrichment ratio is on record?
A: ≤ 0.25

Q: LEWA was tested. Which enrichment ratio did it give?
A: ≤ 0.25

Q: With NLFN as the variant, how does the enrichment ratio read?
A: ≤ 0.25

Q: Which enrichment ratio does the source give for SYAG here?
A: ≤ 0.25

Q: Which enrichment ratio does the source give for ACIW here?
A: ≤ 0.25

Q: With YCSS as the variant, how does the enrichment ratio read?
A: 0.604

Q: For ANIC, which enrichment ratio is on record?
A: 3.74

Q: For LQAI, which enrichment ratio is on record?
A: ≤ 0.25

Q: For NALW, which enrichment ratio is on record?
A: ≤ 0.25

Q: For FKSN, which enrichment ratio is on record?
A: 0.534

Q: How did the enrichment ratio turn out when RQDY was run?
A: ≤ 0.25

Q: With LPLC as the variant, how does the enrichment ratio read?
A: ≤ 0.25

Q: Which enrichment ratio does the source give for VILK here?
A: ≤ 0.25

Q: With NATA as the variant, how does the enrichment ratio read?
A: ≤ 0.25

Q: NGKC was tested. Which enrichment ratio did it give?
A: ≤ 0.25

Q: AVSN was tested. Which enrichment ratio did it give?
A: 10.5

Q: How did the enrichment ratio turn out when EGRK was run?
A: ≤ 0.25

Q: DCLN was tested. Which enrichment ratio did it give?
A: ≤ 0.25

Q: How did the enrichment ratio turn out when EQIF was run?
A: ≤ 0.25

Q: ELSE was tested. Which enrichment ratio did it give?
A: ≤ 0.25

Q: How did the enrichment ratio turn out when QNNY was run?
A: ≤ 0.25

Q: FFRA was tested. Which enrichment ratio did it give?
A: ≤ 0.25

Q: How did the enrichment ratio turn out when TDYA was run?
A: ≤ 0.25

Q: LFAN was tested. Which enrichment ratio did it give?
A: ≤ 0.25

Q: How did the enrichment ratio turn out when RRWG was run?
A: ≤ 0.25

Q: How did the enrichment ratio turn out when MSGG was run?
A: ≤ 0.25

Q: How did the enrichment ratio turn out when HYDR was run?
A: ≤ 0.25

Q: For DRPE, which enrichment ratio is on record?
A: ≤ 0.25

Q: HRMQ was tested. Which enrichment ratio did it give?
A: ≤ 0.25

Q: Which enrichment ratio does the source give for NDGF here?
A: ≤ 0.25

Q: Which enrichment ratio does the source give for VTFW here?
A: ≤ 0.25

Q: ITHQ was tested. Which enrichment ratio did it give?
A: ≤ 0.25

Q: With DKIP as the variant, how does the enrichment ratio read?
A: ≤ 0.25

Q: With WQRM as the variant, how does the enrichment ratio read?
A: ≤ 0.25

Q: With KCRT as the variant, how does the enrichment ratio read?
A: ≤ 0.25

Q: RFKE was tested. Which enrichment ratio did it give?
A: ≤ 0.25

Q: HYRY was tested. Which enrichment ratio did it give?
A: ≤ 0.25

Q: How did the enrichment ratio turn out when GALA was run?
A: 2.12

Q: For PQVN, which enrichment ratio is on record?
A: ≤ 0.25

Q: With VRQY as the variant, how does the enrichment ratio read?
A: ≤ 0.25

Q: How did the enrichment ratio turn out when DFMY was run?
A: ≤ 0.25

Q: TNCW was tested. Which enrichment ratio did it give?
A: ≤ 0.25

Q: How did the enrichment ratio turn out when HLEP was run?
A: ≤ 0.25

Q: With YYHL as the variant, how does the enrichment ratio read?
A: ≤ 0.25

Q: Which enrichment ratio does the source give for RKIT here?
A: ≤ 0.25

Q: With YAMF as the variant, how does the enrichment ratio read?
A: ≤ 0.25

Q: How did the enrichment ratio turn out when VDPV was run?
A: ≤ 0.25

Q: With WGKP as the variant, how does the enrichment ratio read?
A: ≤ 0.25

Q: With GPVA as the variant, how does the enrichment ratio read?
A: ≤ 0.25

Q: YWMQ was tested. Which enrichment ratio did it give?
A: ≤ 0.25

Q: With HDMK as the variant, how does the enrichment ratio read?
A: ≤ 0.25

Q: With WYSE as the variant, how does the enrichment ratio read?
A: ≤ 0.25

Q: With LWMR as the variant, how does the enrichment ratio read?
A: ≤ 0.25

Q: For NHYV, which enrichment ratio is on record?
A: ≤ 0.25

Q: How did the enrichment ratio turn out when HIRR was run?
A: ≤ 0.25

Q: For PKKP, which enrichment ratio is on record?
A: ≤ 0.25

Q: For LFFP, which enrichment ratio is on record?
A: ≤ 0.25

Q: For DQMI, which enrichment ratio is on record?
A: ≤ 0.25

Q: For LYSF, which enrichment ratio is on record?
A: ≤ 0.25

Q: For LQRF, which enrichment ratio is on record?
A: ≤ 0.25

Q: Which enrichment ratio does the source give for YSPS here?
A: ≤ 0.25

Q: How did the enrichment ratio turn out when PEAD was run?
A: ≤ 0.25

Q: LWMQ was tested. Which enrichment ratio did it give?
A: ≤ 0.25

Q: For LGAN, which enrichment ratio is on record?
A: ≤ 0.25

Q: GWMN was tested. Which enrichment ratio did it give?
A: ≤ 0.25

Q: Which enrichment ratio does the source give for NNMI here?
A: ≤ 0.25

Q: For DSTP, which enrichment ratio is on record?
A: ≤ 0.25

Q: How did the enrichment ratio turn out when LVPV was run?
A: ≤ 0.25

Q: WFDW was tested. Which enrichment ratio did it give?
A: ≤ 0.25
